# Source: the RNAGym collection of RNA variant scans (doi:10.1093/nar/gkz1192)
# The source gives no read counts; variants with many changes may rest on few reads.
# B1: CPEB3 Ribozyme (parent)
# chain: UAACAGGGGGCCACAGCAGAAGCGUUCACGUCGCAGCCCCUGUCAGAUUCUGGUGAAUCUGCGAAUUCUGCUGUAUAUCUC
# Variants of: B1
# Assay: self-cleavage, relative activity (ratio to wild type); higher = more cleavage; in vitro, sequencing
# Procedure, shortened: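 Relative activity compares each variant's cleaved/total read fraction with that of the unmutated ribozyme. To get these fractions, barcoded CPEB3 ribozyme libraries from rounds of error-prone PCR were transcribed with T7 RNA polymerase for 5 hours at 37°C and then given 15 min of DNase I treatment before EDTA was added. The RNAs were reverse transcribed with template switching and sequenced on Illumina, and DNA sequencing linked barcodes to variants. A minimum of 5 reads applied, and three batches were averaged.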
row,Variant,self-cleavage
1,UAACAGGGGGCCACAGCAGAAGCGCUCACGUCGCAGCCCCUGUCAGAUUCAGGUGAAUCUGCGAAUUCCGCUGUAUAUCUC,0.15
2,UAACAGGGGGCCACAGCAGAAGCGCUCACGUCGCAGCCCCUGUCAGAUUCCGGUGUAUCUGCGAAUUCUGCUGUAUAUCUC,0.08
3,UAACAGGGGGCCACAGCAGAAGCGCUCACGUCGCAGCCCCUGUCAGAUUCCGGUGAAUCUGCGGAUCCUGCUGUAUAUCUC,0.13
4,UAACAGGGGGCCACAGCAGAAGCGCUCACGUCGCAGCCCCUGUCAGAUUCUGGAGAAUCUGCGAAUUCUGCUGUAUAUCCC,0.27
5,UAACAGGGGGCCACAGCAGAAGCGCUCACGUCGCAGCCCCUGUCAGAUUCUGGCGAAUCUGCGGAUUCUGCCGUAUAUCCC,0.41
6,UAACAGGGGGCCACAGCAGAAGCGCUCACGUCGCAGCCCCUGUCAGAUUCUGGCGAAUCAGCGAAUUCUGCUGUAUACCUC,0.1
7,UAACAGGGGGCCACAGCAGAAGCGCUCACGUCGCAGCCCCUGUCAGAUUCUGGCGAAUCUGCGAAUACUGCUGUAUAUCUC,0.29
8,UAACAGGGGGCCACAGCAGAAGCGCUCACGUCGCAGCCCCUGUCAGAUUCUGGCGAAUCUGCGAAUUCAGCCGUAUAUCGC,0.07
9,UAACAGGGGGCCACAGCAGAAGCGCUCACGUCGCAGCCCCUGUCAGAUUCUGGCGAAUCUGCGAAUUCUGCCGUAUAUCUC,0.12
10,UAACAGGGGGCCACAGCAGAAGCGCUCACGUCGCAGCCCCUGUCAGAUUCUGGUGAAACUGCGAAUUCUGCCGUAUAUCCC,0.08
11,UAACAGGGGGCCACAGCAGAAGCGCUCACGUCGCAGCCCCUGUCAGAUUCUGGUGAACCCGCGAAUCCUGCUGUAUAUCUC,0.11
12,UAACAGGGGGCCACAGCAGAAGCGCUCACGUCGCAGCCCCUGUCAGAUUCUGGUGAAUCAGCGAAUUCGGCUGUAUAUCUC,0.27
13,UAACAGGGGGCCACAGCAGAAGCGCUCACGUCGCAGCCCCUGUCAGAUUCUGGUGAAUCCGCGAAUUCUGCUGCAUAUCUC,0.37
14,UAACAGGGGGCCACAGCAGAAGCGCUCACGUCGCAGCCCCUGUCAGAUUCUGGUGAAUCUGCGAACUCUGCUGUAUAUCUU,0.15
15,UAACAGGGGGCCACAGCAGAAGCGCUCACGUCGCAGCCCCUGUCAGAUUCUGGUGAAUCUGCGAAUUCUGCCGUAUAACUC,0.42
16,UAACAGGGGGCCACAGCAGAAGCGGUCGCGUCGCGGCCCCUGUCAGAUUCUGGCGAAUCAGCGAAUUCUGCUGUAUAUCUC,0.04
17,UAACAGGGGGCCACAGCAGAAGCGGUCACGUCGCUGCCCCUGUCAGAUUCUGGUGAAUCAGCGGGUCCUGCUGUAUAUCUC,0.06

row,Variant,self-cleavage
1,UAACAGGGGGCCACAGCAGAAGCGGUCACGUCGCAGCCCCUGUCAGAUUCUGGUGAAUCUGCGGAUUCUGCUGUAAAACUC,0.42
2,UAACAGGGGGCCACAGCAGAAGCGGUCACGUCGCAGCCCCUGUCAGAUUCUGGUGAAUCUGCGUACUCUGCUGUAUAUCUC,0.06
3,UAACAGGGGGCCACAGCAGAAGCGGUCAGGUCGCAGCCCCUGUCAGAUUCUGGUGAAUCUGCGGAUUCUGCUGUAUACCUC,0.13
4,UAACAGGGGGCCACAGCAGAAGCGGUCACGUCGCAGUCCCUGUCAGAUUCUGGCGAAUCUGCGAAUUCUGCUGUAUAUCUC,0.2
5,UAACAGGGGGCCACAGCAGAAGCGGUCACAUCGCAGCCCCUGUCGGAUUCUGGUGAAUCUGCGAAUUCUGCUGAAUAUCCC,0.12
6,UAACAGGGGGCCACAGCAGAAGCGGACACGUCGCAGCCCCUGUCAGAUUCUGGUGAAUCUGCGAAUUCUGCUGCAUUUCUC,0.79
7,UAACAGGGGGCCACAGCAGAAGCGGUCACGCCGCAGCCCCUGUCAGUUUCUGGUGAAUCUGCGAAUUAUGCUGUAUAUCCC,0.05
8,UAACAGGGGGCCACAGCAGAAGCGGUCACGCCGCAGCCCCUGUCAGAUUCUGGUGAAUCUGCGAAUUCUGCUGUAUACCUC,0.12
9,UAACAGGGGGCCACAGCAGAAGCGGUCACGUCGCAGCCCCCGUCAGAUUCUGGCGAAUCUGCGAAUUCUGCCGUAUAUCUC,0.27
10,UAACAGGGGGCCACAGCAGAAGCGGUCACGUCGCAGCCCCUGACAGAUUCUGGCGAAUCUGCGAAUUCUGCUGUAUAUCUC,0.38
11,UAACAGGGGGCCACAGCAGAAGCGGUCACGUCGCAGCCCCUGUCAGAUCCAGGUGAAUCUGCGAAUUCUGCUGUAUAUCUC,0.07
12,UAACAGGGGGCCACAGCAGAAGCGGUCACGUCGCAGCCCCUGUCAGAUUCCGGUGAAUCCGCGAAUACUGCUGUAUAUCUC,0.06
13,UAACAGGGGGCCACAGCAGAAGCGGUCACGUCGCAGCCCCUGUCAGAUUCUGGCGAAUCUGCGAAUUCUCCUGUAUAUCUC,0.2
14,UAACAGGGGGCCACAGCAGAAGCGUACCCGUCGCAGCCCCUGUCGGAUUCUGGUGAAUCUGCGAAUUCUGCUGUAUGUCUC,0.49
15,UAACAGGGGGCCACAGCAGAAGCGUACCCGUCGCAGCCCCUGUCAGAUUCUGGUGGAUCUGCGAAUUCUGCUGUAUAUCUC,0.2
16,UAACAGGGGGCCACAGCAGAAGCGUACGCGUCGCAGCCCCUGUCAGAUUCUGGUGAAUCUGCGUACUCUGCUGUAUAUCUC,0.17
17,UAACAGGGGGCCACAGCAGAAGCGUACGCGUCGCAGCCCCUGUCAGAUUCUGGUGAAUCUGCGAGUUCUGCUGUAUAUCUC,0.14
